# Measured values from publication PMC5836133.
# The list shows a part of the results. At the low end of the ranking the order means little.
# Test system: T1, GST-NbGlk1(82-244)
# T1 sequence: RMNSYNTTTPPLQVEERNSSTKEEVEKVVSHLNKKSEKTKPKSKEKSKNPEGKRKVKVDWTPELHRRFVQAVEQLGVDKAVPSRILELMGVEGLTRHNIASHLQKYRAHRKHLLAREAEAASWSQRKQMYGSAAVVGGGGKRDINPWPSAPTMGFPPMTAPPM
# Assay: protein-binding microarray;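 note: rank-based score ranging −0.5 to +0.5 with E above 0.45 taken as significant binding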
# Conditions: NbGlk1 is a Golden2-like transcription factor of Nicotiana benthamiana; high values mean tight binding; most listed sequences are background and not binding sites; double strand, one strand shown
row,Sequence,binding signal [E-score]
1,ACGTAGCA,-0.0216
2,ACTGCTGC,-0.23
3,AGTAAGAC,-0.0166
4,ACTTATCC,0.135
5,ACCACGGT,-0.116
6,ATGGTCTC,-0.151
7,AAGGCCAG,-0.274
8,AATCAAGC,0.22
9,ACTCCGTC,-0.234
10,AAGGGTGG,-0.153
11,AAAGGGAC,-0.168
12,AATGGAAA,0.0668
13,ACGTACGC,-0.21
14,AAAGTAGG,0.0754
15,ACACATTG,-0.0765
16,ACCTGCCT,-0.239
17,AGATTACT,0.429
18,AGGTGGCC,-0.274
19,ATTCGCAA,0.352
20,AGGCTCCG,-0.281
21,AACTGGCG,-0.154
22,AGTCCAGG,-0.235
23,ACTCACCT,-0.0573
24,ATCTACTA,0.341

row,Sequence,binding signal [E-score]
1,ATGATCAA,-0.00692
2,ATCGCTAA,0.157
3,ACCGTACT,-0.0955
4,AAATGTGC,-0.0665
5,AAGCGAGA,-0.0261
6,ATGTTTAG,0.0551
7,ACTAACCC,-0.303
8,ACTGTCTG,-0.072
9,AAGGGCCT,-0.207
10,AATAGCGG,-9.73e-05
11,CAATCGAC,0.0642
12,AAGCACGT,0.0234
13,ATTAGCTA,-0.0867
14,ACTTATAA,-0.0101
15,CAGCGCTA,-0.155
16,ATTCTCCG,0.338
17,ATCGACAT,0.00739
18,ATAGCTGG,-0.149
19,ATATGTAA,0.132
20,AGATAGTG,0.151
21,AGGTATGC,-0.0783
22,ATGCTCAG,-0.0893
23,ACCATTTG,-0.13
24,ATAACCTC,0.000455

row,Sequence,binding signal [E-score]
1,AGTCGTAG,-0.239
2,ATGGCACA,-0.0513
3,ACAAGTCT,-0.151
4,ATAAAGAG,0.076
5,AAACACGG,-0.146
6,CAGAGAGG,-0.184
7,CAATGCCG,-0.201
8,CACTGCTG,-0.14
9,ACCCTCTC,-0.18
10,ATAATGTC,0.174
11,AGAGCCCG,-0.2
12,AGTAGCTA,-0.0883
13,AGATCTAT,0.337
14,ATTAGGGC,-0.102
15,ATAGATCA,0.0439
16,ATGTTCAA,0.00791
17,ACGCATTG,-0.0505
18,ACATCCAT,0.022
19,ATGTATAA,0.174
20,ATGTGGCC,-0.157
21,ACACTACC,-0.0835
22,ACGAGCCC,-0.249
23,ATATCACC,0.277
24,ATTCGCAC,0.297

row,Sequence,binding signal [E-score]
1,ATCGATGG,0.0277
2,AAAGCTAA,-0.102
3,AGAAAAAA,0.0258
4,CACAGATA,0.28
5,CACGGCCA,-0.244
6,ACAGGATA,0.261
7,ATCTCCTG,0.312
8,ATGTTAGC,-0.015
9,ATTATTTA,0.148
10,ACGTCGGA,0.0767
11,ATTGATCC,-0.0281
12,ATACAAGG,-0.0173
13,AAGGCAGT,0.0617
14,AGGCACAT,-0.118
15,AGTGTGAT,0.168
16,AAACAGAC,-0.105
17,AGGGATCC,0.103
18,ATGCTCCA,-0.0539
19,ATTTGTGC,0.0523
20,ATACATGC,0.0881
21,ACGGTGCG,-0.195
22,AACCGAAC,-0.135
